The list shows a part of the results.
B1: PhoQ; a variant is named by its letters at X, in order, P23837 (parent)
chain: MKKLLRLFFPLSLRVRFLLATAAVVLVLSLAYGMVALIGYSVSFDKTTFRLLRGESNLFYTLAKWENNKLHVELPENIDKQSPTMTLIYDENGQLLWAQRDVPWLMKMIQPDWLKSNGFHEIEADVNDTSLLLSGDHSIQQQLQEVREDDDDAEMTHSVAVNVYPATSRMPKLTIVVVDTIPVELKSSYMVWSWFIYVLSANLLLVIPLLWVAAWWSLRPIEALAKEVRELEEHNRELLNPATTRELTSLVRNLNRLLKSERERYDKYRTTLTDLTHSLKTPLXXLQXXLRSLRSEKMSVSDAEPVMLEQISRISQQIGYYLHRASMRGGTLLSRELHPVAPLLDNLTSALNKVYQRKGVNISLDISPEISFVGEQNDFVEVMGNVLDNACKYCLEFVEISARQTDEHLYIVVEDDGPGIPLSKREVIFDRGQRVDTLRPGQGVGLAVAREITEQYEGKIVAGESMLGGARMEVIFGRQHSAPKDE

Variants of: B1
Assay: enrichment ratio after two sorts for PhoP signalling (ratio (wild type AVST 3.29)); higher = more functional
Conditions: with PhoP (E. coli)

Variant | enrichment ratio
KARQ | ≤ 0.25
NGLG | ≤ 0.25
PYCN | ≤ 0.25
HGRP | ≤ 0.25
YCAI | 0.312
PPVP | ≤ 0.25
SRSE | ≤ 0.25
MQNG | ≤ 0.25
EEHR | ≤ 0.25
CSTC | ≤ 0.25
LSPN | ≤ 0.25
DWHS | ≤ 0.25
FYAP | ≤ 0.25
GWQS | ≤ 0.25
QPTK | ≤ 0.25
DRMT | ≤ 0.25
FLLF | ≤ 0.25
VCRL | ≤ 0.25
EKPA | ≤ 0.25
SVHN | ≤ 0.25
AKHF | ≤ 0.25
ERDG | ≤ 0.25
HPHL | ≤ 0.25
EADF | ≤ 0.25

Variant | enrichment ratio
LICF | ≤ 0.25
MNQY | ≤ 0.25
APYL | ≤ 0.25
FKMN | ≤ 0.25
QYRQ | ≤ 0.25
SKET | ≤ 0.25
WGFN | ≤ 0.25
QTCS | ≤ 0.25
GYYH | ≤ 0.25
EHLE | ≤ 0.25
FFHE | ≤ 0.25
TWCR | ≤ 0.25
NHMY | ≤ 0.25
AAWP | ≤ 0.25
EEIY | ≤ 0.25
WYVW | ≤ 0.25
LSFV | 5.15
HMYP | ≤ 0.25
WLRD | ≤ 0.25
IWMW | ≤ 0.25
KLHK | ≤ 0.25
PQFQ | ≤ 0.25
LLMV | ≤ 0.25
GMYL | ≤ 0.25

Variant | enrichment ratio
EWPS | ≤ 0.25
FPTR | ≤ 0.25
DYTK | ≤ 0.25
ITDD | ≤ 0.25
NAYD | ≤ 0.25
VDES | ≤ 0.25
IATK | ≤ 0.25
FRNR | ≤ 0.25
GFKC | ≤ 0.25
AAVQ | ≤ 0.25
LCIF | ≤ 0.25
RHVT | ≤ 0.25
MTHN | ≤ 0.25
DKSD | ≤ 0.25
EQFR | ≤ 0.25
NEHM | ≤ 0.25
WSRY | ≤ 0.25
TKNA | 5.51
IFII | ≤ 0.25
NLAN | ≤ 0.25
HIAI | ≤ 0.25
QQYM | 47.2
QDNK | ≤ 0.25
KEMD | ≤ 0.25

Variant | enrichment ratio
KTYR | ≤ 0.25
NCPT | ≤ 0.25
AMWE | ≤ 0.25
EQTP | ≤ 0.25
QNIV | ≤ 0.25
QFGM | ≤ 0.25
GKIW | ≤ 0.25
MILL | 7.68
KKHP | ≤ 0.25
QSYN | 0.327
LFTR | ≤ 0.25
QPWS | ≤ 0.25
DLPK | ≤ 0.25
DRYD | ≤ 0.25
THIE | ≤ 0.25
GLVI | 1.8
VILE | ≤ 0.25
HWLR | ≤ 0.25
FTIP | ≤ 0.25
IYAN | ≤ 0.25
ICEP | 1.26
EQRD | ≤ 0.25
RSKG | ≤ 0.25
MYPQ | ≤ 0.25

Variant | enrichment ratio
VFDF | ≤ 0.25
IQVI | ≤ 0.25
DEST | ≤ 0.25
GKTA | ≤ 0.25
DHIG | ≤ 0.25
NKAH | ≤ 0.25
GMNI | ≤ 0.25
FIQM | ≤ 0.25
VAVM | ≤ 0.25
EHDP | ≤ 0.25
MVIP | ≤ 0.25
YKSM | ≤ 0.25
LNEK | ≤ 0.25
YAYG | ≤ 0.25
NGHC | ≤ 0.25
RYIY | ≤ 0.25
KNFA | ≤ 0.25
KFIY | ≤ 0.25
QDQM | ≤ 0.25
MASQ | ≤ 0.25
WCPD | ≤ 0.25
RYWC | ≤ 0.25
KNML | ≤ 0.25
SMMQ | 4.3

Variant | enrichment ratio
LKPF | ≤ 0.25
ANHF | ≤ 0.25
IMFR | ≤ 0.25
SWQF | ≤ 0.25
KAPH | ≤ 0.25
NWCL | ≤ 0.25
DVQS | ≤ 0.25
CFVI | ≤ 0.25
HMHA | ≤ 0.25
PAIK | ≤ 0.25
VPYM | ≤ 0.25
AHFP | ≤ 0.25
QQGT | ≤ 0.25
FFQF | ≤ 0.25
SHDL | ≤ 0.25
PFWK | ≤ 0.25
VYWI | ≤ 0.25
SYLW | ≤ 0.25
LSFQ | 3.77
WERD | ≤ 0.25
EDNA | ≤ 0.25
RDSV | ≤ 0.25
QDRY | ≤ 0.25
AWLE | ≤ 0.25

Variant | enrichment ratio
ECLK | ≤ 0.25
FDKI | ≤ 0.25
IPFG | ≤ 0.25
VDGC | ≤ 0.25
IDFC | ≤ 0.25
WVIY | ≤ 0.25
SNES | ≤ 0.25
ITYY | ≤ 0.25
TVMK | 2
DLSW | ≤ 0.25
ITQY | ≤ 0.25
LWDW | ≤ 0.25
DGKV | ≤ 0.25
SLIC | ≤ 0.25
TTWE | ≤ 0.25
YHML | ≤ 0.25
FQNY | ≤ 0.25
KCPL | ≤ 0.25
VWDK | ≤ 0.25
RYNK | ≤ 0.25
QEQH | ≤ 0.25
WGPW | ≤ 0.25
YDCK | ≤ 0.25
RNGL | ≤ 0.25

Variant | enrichment ratio
MFTQ | ≤ 0.25
MSLQ | 10
ARQS | ≤ 0.25
APWF | ≤ 0.25
FHES | ≤ 0.25
LFMH | ≤ 0.25
ADCM | 10.2
YIGP | ≤ 0.25
AHCV | ≤ 0.25
MLNG | ≤ 0.25
HFMR | ≤ 0.25
WIYS | ≤ 0.25
FDVN | ≤ 0.25
DLLD | ≤ 0.25
FFTA | ≤ 0.25
GRFF | ≤ 0.25
NTAI | ≤ 0.25
IDQV | ≤ 0.25
GHWK | ≤ 0.25
YGYT | ≤ 0.25
EVYQ | ≤ 0.25
HDKM | ≤ 0.25
ILTP | ≤ 0.25
DFVG | ≤ 0.25

Variant | enrichment ratio
HGTS | ≤ 0.25
SGEY | ≤ 0.25
FQQE | ≤ 0.25
GDPT | ≤ 0.25
WYSW | ≤ 0.25
HDEP | ≤ 0.25
RIYI | ≤ 0.25
MMLM | ≤ 0.25
SDDD | ≤ 0.25
RFFP | ≤ 0.25
DMPN | ≤ 0.25
TLLE | ≤ 0.25
DISR | ≤ 0.25
AMTW | 6.78
YVGN | ≤ 0.25
RWIV | ≤ 0.25
MQTN | ≤ 0.25
FSDD | ≤ 0.25
FINM | ≤ 0.25
LVYR | ≤ 0.25
EPIL | ≤ 0.25
MIMV | ≤ 0.25
AGFH | ≤ 0.25
RSPS | ≤ 0.25

Variant | enrichment ratio
VMPE | ≤ 0.25
YKQP | ≤ 0.25
AMCR | 8.85
INMK | ≤ 0.25
PAPE | ≤ 0.25
AFTR | ≤ 0.25
NCSG | ≤ 0.25
ESDC | ≤ 0.25
TDLL | 11.8
SYVC | 0.486
IWVA | ≤ 0.25
FWTR | ≤ 0.25
NPAP | ≤ 0.25
IDPP | ≤ 0.25
PNDR | ≤ 0.25
GKYN | ≤ 0.25
NLVE | ≤ 0.25
RVLA | ≤ 0.25
WAQP | ≤ 0.25
ARDN | ≤ 0.25
GAEL | ≤ 0.25
ADCK | ≤ 0.25
WLSC | ≤ 0.25
TEPQ | ≤ 0.25

Variant | enrichment ratio
RHSG | ≤ 0.25
SHDP | ≤ 0.25
ITGH | ≤ 0.25
AWTD | ≤ 0.25
NPPQ | ≤ 0.25
QFNP | ≤ 0.25
AISN | 10
PQIR | ≤ 0.25
RVIA | ≤ 0.25
ALWT | ≤ 0.25
IFCV | ≤ 0.25
LWPD | ≤ 0.25
YVKY | ≤ 0.25
NHCD | ≤ 0.25
ASYD | ≤ 0.25
AFTD | ≤ 0.25
VWSP | ≤ 0.25
LDTP | ≤ 0.25
NYPL | ≤ 0.25
SFHP | ≤ 0.25
PYFK | ≤ 0.25
QHDC | 10.5
HVWN | ≤ 0.25
EEQC | ≤ 0.25

Variant | enrichment ratio
ATQF | ≤ 0.25
SFAP | ≤ 0.25
EFGM | 0.76
KIFG | ≤ 0.25
VFLF | ≤ 0.25
ATAS | 4.65
RRMV | ≤ 0.25
RHMA | ≤ 0.25
MLHW | ≤ 0.25
CPYP | ≤ 0.25
MGVQ | ≤ 0.25
NLIA | ≤ 0.25
HYEN | ≤ 0.25
WFVE | ≤ 0.25
VLYP | ≤ 0.25
VLWG | ≤ 0.25
KGMI | ≤ 0.25
TKWV | 4.41
DAMA | ≤ 0.25
HLEH | ≤ 0.25
ETGA | ≤ 0.25
SKGY | ≤ 0.25
YMLE | ≤ 0.25
SSVC | 9.35

Variant | enrichment ratio
TQEH | ≤ 0.25
QFDV | ≤ 0.25
PQPG | ≤ 0.25
LRFL | ≤ 0.25
SKAV | 4.49
QTND | ≤ 0.25
VGMY | ≤ 0.25
QWIS | ≤ 0.25
LRSC | ≤ 0.25
KYGA | ≤ 0.25
NYGG | ≤ 0.25
ARID | ≤ 0.25
LLMD | ≤ 0.25
TVQK | 15.5
KYRP | ≤ 0.25
STMA | 4.9
YVPF | ≤ 0.25
ERVR | ≤ 0.25

Source: a collection of fitness landscapes (doi:10.1126/science.1257360)
